# Source: the supplement of paper PMC11880418
# Structures can show the parent of a compound that is named as a salt. Some of the results follow. The data scatter; read single values as rough.
# Tests used:
# Assay in all cases: ALDHbr (CSC) cell proportion score relative to DMSO vehicle (ratio to DMSO); breast (SUM159) / gastric (MKN45) / pancreatic (PANC1) / colon cancer lines; ALDHbr cells have high ALDH activity and are rich in cancer stem cells (CSC); higher = more CSC (ALDHbr) cells remaining
# Details in all cases: 10 µM; 72 h
# MKN45 = tested on: MKN45
# PANC1 = tested on: PANC1
# SUM159 = tested on: SUM159
# T84 = tested on: T84
# 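Further: High-content imaging of ALDEFLUOR-stained cells with Hoechst-labelled nuclei in 384-well plates, triplicate wells, scored as Z-score against 0.1% DMSO vehicle, negative meaning fewer ALDHbr cells.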
SMILES,ALDHbr (MKN45),ALDHbr (PANC1),ALDHbr (SUM159),ALDHbr (T84)
COc1ccc(C(=O)N2CCCC2=O)cc1 [Aniracetam],0.973,0.858,0.974,0.962
C[C@@H]1CN([C@H]2CC[C@](C#N)(c3ccc(F)cc3)CC2)CC[C@]1(C(=O)O)c1ccccc1 [Levocabastine hydrochloride],0.905,0.776,0.967,0.911
C[C@]12CC[C@H](O)C[C@@H]1CC[C@@H]1[C@@H]2CC[C@]2(C)C(=O)CC[C@@H]12 [Epiandrosterone],0.711,0.91,0.815,0.861
C[C@]12CC[C@@H]3c4ccc(OC(=O)N(CCCl)CCCl)cc4CC[C@H]3[C@@H]1CC[C@@H]2O [Estramustine],0.797,1.48,1.69,0.147
CN(C)[C@@H]1C(=O)C(C(N)=O)=C(O)[C@@]2(O)C(=O)C3=C(O)c4c(O)cccc4[C@@](C)(O)[C@H]3[C@H](O)[C@@H]12 [Oxytetracycline dihydrate],0.864,0.575,0.876,0.887
C=CCN1CC[C@]23c4c5ccc(O)c4O[C@H]2C(=O)CC[C@@]3(O)[C@H]1C5 [Naloxone hydrochloride],0.878,0.975,0.979,0.964
"CCC1(c2ccc(N)cc2)CCC(=O)NC1=O (stereo unspecified) [Glutethimide, para-amino]",0.976,0.846,0.872,0.915
CCCN1C[C@H](CSC)C[C@@H]2c3cccc4[nH]cc(c34)C[C@H]21 [Pergolide mesylate],1.09,0.701,0.874,0.812
CC(NC(C)(C)C)C(=O)c1cccc(Cl)c1 (stereo unspecified) [Bupropion hydrochloride],1.02,0.893,1.03,0.947
S=C(NC1CCCCC1)N1CCC(c2cnc[nH]2)CC1 [Thioperamide maleate],0.901,1.06,0.961,1.02
C=C1CC[C@@]2(O)[C@H]3Cc4ccc(O)c5c4[C@@]2(CCN3CC2CC2)[C@H]1O5 [Nalmefene hydrochloride],1.05,0.958,1.02,1.05
CCN(C(C)=O)c1cccc(-c2ccnc3c(C#N)cnn23)c1 [Zaleplon],1.01,0.853,0.869,0.788
CC[N+]1(C)CCCC(OC(=O)C(O)(c2ccccc2)c2ccccc2)C1 (stereo unspecified) [Pipenzolate bromide],1.04,0.937,0.979,0.931
O=[N+]([O-])O[C@@H]1CO[C@H]2[C@@H]1OC[C@@H]2O [Isosorbide mononitrate],0.783,0.988,0.829,1.01
CCCCCC[C@H]1C(=O)O[C@H](C)[C@H](NC(=O)c2cccc(NC=O)c2O)C(=O)O[C@@H](C)[C@@H]1OC(=O)CC(C)C [Antimycin A],0.309,1.13,1.23,0.674
CC[C@@H](CO)NC(=O)[C@@H]1C=C2c3cccc4[nH]cc(c34)C[C@H]2N(C)C1 [Methylergometrine maleate],0.986,0.911,1.05,0.784
NCCCNCCSP(=O)(O)O [Amifostine],1.06,0.874,1.17,0.922
CCC(=O)O[C@@](Cc1ccccc1)(c1ccccc1)[C@@H](C)CN(C)C [Levopropoxyphene napsylate],1.22,1.01,0.741,0.924
NCCc1c[nH]c2ccc(O)cc12 [Serotonin hydrochloride],1.07,0.965,1.26,0.891
CC(C)c1cccc(C(C)C)c1O [Propofol],0.925,0.907,0.995,0.93
O=[N+]([O-])O[C@H]1CO[C@H]2[C@@H]1OC[C@H]2O[N+](=O)[O-] [Isosorbide dinitrate],0.0753,0.635,0.0324,0.199
CCCC(C)C1(CC)C(=O)NC(=O)NC1=O (stereo unspecified) [Pentobarbital],1.22,0.952,1.04,0.99
CC(CCc1ccccc1)NC(C)C(O)c1ccc(O)cc1 (stereo unspecified) [Nylidrin],1.12,0.959,2.14,0.889
C=CCC1(CC(C)C)C(=O)NC(=O)NC1=O [Butalbital],1.05,0.928,1.03,1
C[C@]12COC(=O)C[C@@H]1CC[C@@H]1[C@@H]2CC[C@@]2(C)[C@H]1CC[C@]2(C)O [Oxandrolone],1,0.895,1.17,0.896
CN(C)C(=O)Oc1ccc[n+](C)c1 [Pyridostigmine iodide],1.09,0.981,1.02,1.12
CN1[C@@H]2CC[C@H]1C[C@@H](OC(=O)[C@H](CO)c1ccccc1)C2 [Hyoscyamine (L)],1.11,1.07,1.06,1.21

SMILES,ALDHbr (MKN45),ALDHbr (PANC1),ALDHbr (SUM159),ALDHbr (T84)
C#C[C@]1(O)CC[C@H]2[C@@H]3CCC4=CC(=O)CC[C@]4(C)[C@H]3CC[C@@]21C [Ethisterone],0.883,0.799,0.963,0.853
O=c1[nH]c2ccccc2n1C1CCN(CCCC(c2ccc(F)cc2)c2ccc(F)cc2)CC1 [Pimozide],0.582,1.03,1.06,0.147
CC(C)N(CCC(C(N)=O)(c1ccccc1)c1ccccn1)C(C)C (stereo unspecified) [Disopyramide],1.27,0.782,1.16,0.971
CC(C)C[C@H](CN)CC(=O)O [Pregabalin],0.951,0.98,0.776,0.94
C[C@]12C/C(=C/O)C(=O)C[C@@H]1CC[C@@H]1[C@@H]2CC[C@@]2(C)[C@H]1CC[C@]2(C)O [Oxymetholone],0.756,0.75,0.664,0.712
C#CCN(C)[C@H](C)Cc1ccccc1 [Selegiline hydrochloride],1.07,0.975,1.02,1.05
Oc1ccc2c3c1O[C@H]1[C@@H](O)CC[C@@]4(O)[C@@H](C2)N(CC2CCC2)CC[C@]314 [Nalbuphine hydrochloride],0.853,0.942,1.07,0.919
CCn1cc(C(=O)O)c(=O)c2cc3c(cc21)OCO3 [Oxolinic acid],0.953,0.849,1.02,0.921
"CNCC(O)c1ccc(O)cc1 (racemic) [(+,-)-Synephrine]",0.988,0.922,1.97,0.866
COc1cccc(C2(O)CCCCC2CN(C)C)c1 (stereo unspecified) [Tramadol hydrochloride],1.02,0.793,0.976,1.07
CCCC[N+]1(C)[C@@H]2CC(OC(=O)[C@H](CO)c3ccccc3)C[C@H]1[C@@H]1O[C@@H]12 (stereo partly specified) [Butylscopolammonium (n-) bromide],0.924,0.97,1.07,0.785
CN[C@@H]1C[C@@H](c2ccc(Cl)c(Cl)c2)c2ccccc21 [Indatraline hydrochloride],1.68,1.56,0.562,0.284
"CN1CCC2(C)c3cc(O)ccc3N(C)C12 (single isomer, unassigned; (-)) [(-)-Eseroline fumarate salt]",1.17,0.772,0.716,0.828
CCNCC(O)c1cccc(O)c1 (stereo unspecified) [Etilefrine hydrochloride],0.956,0.866,2.19,0.811
CC(=O)[C@H]1CC[C@H]2[C@@H]3CC[C@H]4C[C@H](O)CC[C@]4(C)[C@H]3C(=O)C[C@]12C [Alfaxalone],1.06,0.906,0.929,0.976
CO[C@]12C[C@@H](COC(=O)c3cncc(Br)c3)CN(C)[C@@H]1Cc1cn(C)c3cccc2c13 [Nicergoline],1.2,0.812,1.37,1.06
C[N+]1(C)CCCC(OC(=O)C(O)(c2ccccc2)c2ccccc2)C1 (stereo unspecified) [Mepenzolate bromide],0.894,0.998,0.904,0.854
CN(C)[C@@H]1C(=O)C(C(N)=O)=C(O)[C@@]2(O)C(=O)C3=C(O)c4c(O)ccc(Cl)c4[C@@](C)(O)[C@H]3C[C@@H]12 [Chlortetracycline hydrochloride],0.947,0.612,0.821,1.05
CN(C)C(=O)Oc1cc(OC(=O)N(C)C)cc(C(O)CNC(C)(C)C)c1 (stereo unspecified) [Bambuterol hydrochloride],1.04,0.822,0.944,0.803
N[C@@H]1C[C@H]1c1ccccc1 [Tranylcypromine hydrochloride],0.817,0.856,1.18,0.933
CC(C)[N+](C)(CCC(C(N)=O)(c1ccccc1)c1ccccc1)C(C)C [Isopropamide iodide],0.898,0.877,0.994,1.06
C[C@]12CC[C@@H](O)C[C@H]1CC[C@@H]1[C@@H]2CC[C@]2(C)C(=O)CC[C@@H]12 [3-alpha-Hydroxy-5-beta-androstan-17-one],0.834,0.751,1.14,0.927
C[N+]1(C)CCOC(O)(c2ccc(-c3ccc(C4(O)C[N+](C)(C)CCO4)cc3)cc2)C1 (stereo unspecified) [Hemicholinium bromide],1.02,1.05,0.903,0.974
CC(Cc1ccccc1)NCCC(c1ccccc1)c1ccccc1 (stereo unspecified) [Prenylamine lactate],1.51,0.885,0.937,0.0795
CN(C)[C@@H]1C(=O)C(C(N)=O)=C(O)[C@@]2(O)C(=O)C3=C(O)c4c(O)cccc4[C@@](C)(O)[C@H]3C[C@@H]12 [Tetracycline hydrochloride],0.608,0.489,0.929,0.873
COC[C@@H](NC(C)=O)C(=O)NCc1ccccc1 [Lacosamide],0.978,0.916,0.98,0.886
CCC(=O)O[C@H]1CC[C@H]2[C@@H]3CCC4=CC(=O)CC[C@]4(C)[C@H]3CC[C@]12C [Testosterone propionate],0.744,0.708,1.8,0.998
